Source: PubChem BioAssay AID504332 (National Center for Advancing Translational Sciences (NCATS), 2011)
Hit rate of the full screen: of about 350,000 compounds, about 31,000 (8.9%) were called active. Inconclusive means that the source gave no clear call. Such entries were picked first, then a sample of the others. The call rests on the fitted dose curve; in most records, active means well fitted inhibition curve with a large enough effect; inconclusive means small, poorly fitted or top-dose-only effect; inactive means no such curve, though single readings can be large or run the other way. Potencies of inconclusive entries are doubtful fits and often do not repeat.

target: Histone-lysine N-methyltransferase EHMT2 (Homo sapiens) (UniProt Q96KQ7); test: qHTS Assay for Inhibitors of Histone Lysine Methyltransferase G9a; conditions: G9a H3K9 monomethylation, AlphaScreen, 2 h; activity, negative = inhibition: at 59 µM (top of the series) unless noted; further: nearly all actives have a fitted effect of over 75% in size
Procedure, shortened: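 G9a (20 nM) preincubated 15 min RT with compounds, then 500 nM biotinylated H3K9 peptide and 20 uM SAM added; 2 h RT reaction. Monomethyl-H3K9 product detected by AlphaScreen with anti-H3K9me1 antibody, streptavidin donor and anti-rabbit IgG acceptor beads.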
On the % scale 0 is the no-effect control and ±100 the full control effect; potency means the concentration at half of the fitted maximal effect; tags describe the fitted curve by direction and shape.

Sequence of UniProt Q96KQ7 (Q96KQ7 whole entry, looked up): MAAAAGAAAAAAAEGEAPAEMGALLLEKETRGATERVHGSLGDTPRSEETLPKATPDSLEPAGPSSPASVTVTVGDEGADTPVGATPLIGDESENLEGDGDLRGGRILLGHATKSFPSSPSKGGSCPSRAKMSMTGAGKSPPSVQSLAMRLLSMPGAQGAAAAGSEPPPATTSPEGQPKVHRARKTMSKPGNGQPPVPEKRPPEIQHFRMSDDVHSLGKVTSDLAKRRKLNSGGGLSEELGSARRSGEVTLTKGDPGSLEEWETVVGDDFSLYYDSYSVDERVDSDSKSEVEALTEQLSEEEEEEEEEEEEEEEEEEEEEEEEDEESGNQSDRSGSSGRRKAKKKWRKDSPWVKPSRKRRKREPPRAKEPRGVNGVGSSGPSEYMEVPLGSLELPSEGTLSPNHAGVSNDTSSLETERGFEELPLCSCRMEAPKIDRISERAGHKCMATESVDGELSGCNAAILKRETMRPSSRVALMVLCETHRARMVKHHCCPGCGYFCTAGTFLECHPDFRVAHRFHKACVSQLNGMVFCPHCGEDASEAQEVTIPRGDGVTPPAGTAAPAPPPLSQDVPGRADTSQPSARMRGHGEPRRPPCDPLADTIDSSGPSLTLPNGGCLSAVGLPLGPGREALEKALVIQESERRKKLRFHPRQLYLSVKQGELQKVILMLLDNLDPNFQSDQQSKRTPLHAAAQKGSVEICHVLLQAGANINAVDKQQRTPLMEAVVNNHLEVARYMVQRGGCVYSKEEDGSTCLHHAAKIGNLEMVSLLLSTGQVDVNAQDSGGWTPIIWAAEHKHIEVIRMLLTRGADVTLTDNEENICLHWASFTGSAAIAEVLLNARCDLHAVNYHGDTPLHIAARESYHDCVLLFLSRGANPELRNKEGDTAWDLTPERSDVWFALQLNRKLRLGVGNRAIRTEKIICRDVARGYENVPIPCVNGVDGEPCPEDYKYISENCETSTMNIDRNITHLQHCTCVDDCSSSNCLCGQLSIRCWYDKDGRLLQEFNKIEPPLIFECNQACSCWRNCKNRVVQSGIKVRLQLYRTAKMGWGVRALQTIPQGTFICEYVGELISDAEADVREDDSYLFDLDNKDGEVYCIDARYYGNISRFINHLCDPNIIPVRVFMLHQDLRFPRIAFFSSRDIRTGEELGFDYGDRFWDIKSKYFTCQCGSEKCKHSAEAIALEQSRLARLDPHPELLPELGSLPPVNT

SMILES | Potency | activity, negative = inhibition
CCc1cccc(NC(=O)Cn2cc(C(=O)c3ccncc3)c(=O)c3cc(C)c(C)cc32)c1 | inactive | –
Cc1cccc(C)c1OC[C@H](C)N | inactive | –
O=C(O)C1C2C=CC3(CN(Cc4ccco4)C(=O)C13)O2 (stereo not given) | inconclusive: 79.4 µM [inhibitor, single point] | –
O=C(NCc1ccc(Cl)cc1)c1ccc2c(c1)NC(=O)C(CS(=O)(=O)Cc1ccccc1Cl)N2 (stereo not given) | inconclusive: 2.82 µM [inhibitor, full curve, poor fit] | –
COC(=O)C1C(=O)c2c([nH]c(C(=O)OCCOC(C)C)c2C)CC1C (stereo not given) | inconclusive: 15.8 µM [inhibitor, single point] | –
COc1cc(OC)c(C2SCCS2)c(OC)c1 | inactive | –
COc1cc(/C=C2\C(=N)N3N=CSC3=NC2=O)cc(Br)c1OC(=O)c1ccco1 | inconclusive: 39.8 µM [inhibitor, partial curve, poor fit] | –
CCC1CCCCN1C(=O)Cn1c(=O)n(CCCCCC(=O)NCc2ccc(F)cc2)c(=O)c2sccc21 (stereo not given) | inactive | –
Cc1cccc(C(=O)N2CCc3cc(-c4nc(NC(=O)CN5CCCC5)sc4C)ccc32)c1 | inconclusive: 44.7 µM [inhibitor, partial curve] | –
C#CC(C)(C)NC(=O)c1sccc1Oc1ccc(F)cc1[N+](=O)[O-] | inconclusive: 89.1 µM [inhibitor, partial curve, poor fit] | –
Oc1c(C(c2ccc(Cl)cc2)N2CCCC2)cc(Cl)c2cccnc12 (stereo not given) | active: 25.1 µM | –
O=C(Nc1cc(Cl)cc(Cl)c1)c1cnn2cccnc12 | inactive | –
Cc1nnc(SCC(=O)NC2CCCCC2)[nH]c1=O | inconclusive: 56.2 µM [inhibitor, single point] | –
O=C(O)CCn1cnc2onc(-c3ccccc3Cl)c2c1=O | inconclusive: 35.5 µM [inhibitor, single point] | –
O=C(Nc1nnc(-c2cccnc2)o1)c1cccc(Cl)c1 | inconclusive: 28.2 µM [inhibitor, partial curve, poor fit] | –
O=C(NC1CCCC1)C(c1ccncc1)N(CCCN1CCOCC1)C(=O)c1ccc(-c2ccccc2)[nH]1 (stereo not given) | inconclusive: 50.1 µM [inhibitor, partial curve] | –
CCC(=O)Nc1ccc(-c2csc(NNC(C)=O)n2)cc1 | active: 14.1 µM | –
COc1ccc2[nH]c(S(=O)Cc3ncc(C)c(OC)c3C)nc2n1 (stereo not given) | inconclusive: 0.891 µM [inhibitor, full curve, poor fit] | –
c1cc2c(cn1)cnc1cscc12 | active: 79.4 µM | –
CC(C)Sc1ncc(Cl)c(C(=O)N(Cc2ccc(F)cc2)C2CCS(=O)(=O)C2)n1 (stereo not given) | inactive | –
Cc1ccc(NC(=O)CSc2nnc(-c3ccccn3)n2N)cc1F | inactive | –
O=[N+]([O-])c1nn(-c2ccc(Cl)cc2)n(O)c1=NCc1ccncc1 | active: 39.8 µM | –
N#Cc1ccccc1Sc1ccccc1C(=O)OCC(=O)N1CCN(C(=O)c2ccco2)CC1 | inconclusive: 22.4 µM [inhibitor, single point] | –
CCC1=C[C@@H]2CN(C1)Cc1c([nH]c3ccccc13)[C@@](C(=O)OC)(c1cc3c(cc1OC)N(C)[C@@H]1[C@@](O)(C(=O)OC)[C@H](OC(C)=O)[C@]4(CC)C=CCN5CC[C@]31[C@@H]54)C2 | inconclusive: 1.26 µM [inhibitor, partial curve, poor fit] | –

SMILES | Potency | activity, negative = inhibition
CCOC(=O)CN1C(=O)S/C(=C/c2ccc(C)o2)C1=O | active: 31.6 µM | –
CN(C)CCNc1oc(-c2ccccc2Cl)nc1S(=O)(=O)c1ccccc1 | – | inactive: -14.1% [at 12.7 µM]
CCCC(=O)NCc1ccccc1Cl | inactive | –
CCOC(=O)C(C(C)=O)c1c(Br)c(O)c(O)c2c(C(=O)c3ccc(C)cc3)coc12 (stereo not given) | inconclusive: 10 µM [inhibitor, partial curve, poor fit] | –
Cc1ccnc(NS(=O)(=O)c2ccc(NC(=O)c3c(-c4ccccc4Cl)noc3C)cc2)n1 | inconclusive: 25.1 µM [inhibitor, partial curve, poor fit] | –
CC1(C)Oc2cc(N)c([N+](=O)[O-])cc2O1 | inconclusive: 89.1 µM [inhibitor, single point] | –
O=C(NCCCNc1ccc([N+](=O)[O-])cc1Cl)c1ccccc1F | inconclusive: 14.1 µM [inhibitor, partial curve, poor fit] | –
CC(C)c1ccccc1-n1c(SCC(=O)c2ccc3c(c2)NC(=O)CO3)nc2ccccc2c1=O | active: 39.8 µM | –
CC(c1nccs1)N(C)C(=O)CCc1nnc(Cc2c[nH]c3ccccc23)o1 (stereo not given) | inconclusive: 3.16 µM [inhibitor, partial curve, poor fit] | –
Cc1ccc(CN2CCN(/N=C/c3ccc(C(=O)O)cc3)CC2)cc1 | active: 7.94 µM | –
COc1ccc(N2CCN(C(=O)CCC(=O)N3CC(C)Oc4ccc(C)cc43)CC2)cc1 (stereo not given) | active: 44.7 µM | –
Cc1cc(C(=O)CN2C(=O)NC(CC(C)C)C2=O)c(C)n1-c1ccccc1F (stereo not given) | active: 50.1 µM | –
CCCCNC(=O)CC1N=C2c3ccccc3N=C(SCC(=O)Nc3ccccc3C)N2C1=O (stereo not given) | inconclusive: 89.1 µM [inhibitor, single point] | –
C=CCc1c(C)nc(SCC(N)=O)[nH]c1=O | inactive | –
CC(=O)Nc1c(C(=O)Nc2ccc3c(c2)OCO3)oc2ccccc12 | inactive | –
COc1ccc(CCN2CC(C(=O)N3CCN(C(C)=O)CC3)CCC2=O)cc1 (stereo not given) | inconclusive: 89.1 µM [inhibitor, partial curve, poor fit] | –
Cc1c(Nc2cc(Cl)c3nonc3c2[N+](=O)[O-])c(=O)n(-c2ccccc2)n1C | active: 7.08 µM | –
c1ccc(-c2nn[nH]n2)cc1 | inconclusive: 28.2 µM [inhibitor, partial curve, poor fit] | –
CCOC(=O)c1cc(-c2ccccc2)n(-c2cccc(C(=O)N(CC)c3ccccc3)c2)c1C | inconclusive: 22.4 µM [inhibitor, single point] | –
Cn1cnnc1SCc1ccc(-c2ccc(Br)cc2)o1 | inconclusive: 39.8 µM [inhibitor, single point] | –
CCN1CCN(CC(=O)c2ccc(C)cc2)CC1 | active: 39.8 µM | –
O=C(NCc1ccccc1)C1=C[C@@H](c2csc3ccccc23)C[C@@H](OCCCCO)O1 | – | inconclusive: -68.6% [inhibitor]
Cc1ccc(S(=O)(=O)NCc2ccccc2)cc1C(=O)NCCc1ccc(S(N)(=O)=O)cc1 | – | inactive: -8.02% [at 12.7 µM]
CCN1c2cc(C)ccc2-n2cccc2C12CCN(C(=O)Nc1cc(OC)c(OC)c(OC)c1)CC2 | inconclusive: 39.8 µM [inhibitor, single point] | –

SMILES | Potency | activity, negative = inhibition
CC1CCN(C(=O)CSc2ccc(-c3ccccc3)nn2)CC1 | inactive | –
CCOC(=O)c1c(C)nc2c(c1-c1cc(OC)ccc1OC)C(=O)c1ccccc1-2 | inconclusive: 3.98 µM [inhibitor, full curve] | –
Cc1ccc2oc3c(c(=O)c2c1)C(c1cccc(O)c1)N(Cc1ccccc1Cl)C3=O (stereo not given) | inactive | –
O=C(COC(=O)CCc1nc2ccccc2s1)Nc1ccc(S(=O)(=O)N2CCOCC2)cc1 | active: 56.2 µM | –
Cc1ccc(-c2nn(CC(=O)N(C)C)c(=O)c3ccccc23)cc1S(=O)(=O)N(C)C | inconclusive: 70.8 µM [inhibitor, partial curve, poor fit] | –
COc1ccc(NS(=O)(=O)c2ccc3[nH]c(=O)[nH]c3c2)cc1 | inconclusive: 79.4 µM [inhibitor, single point] | –
COc1ccc(N2CCN(C(=O)NCc3noc4ccccc34)CC2)cc1 | inconclusive: 22.4 µM [inhibitor, single point] | –
O=P(O)(CP(=O)(c1ccccc1)c1ccccc1)c1ccccc1O | active: 50.1 µM | –
Cc1ccccc1N/N=C/c1ccc(N2CCOCC2)cc1 | inconclusive: 0.282 µM [inhibitor, full curve, poor fit] | –
Cc1ccc(-n2c(SCC(=O)Nc3cccc(F)c3)nc3c(oc4ccccc43)c2=O)cc1C | inactive | –
COc1cc(CNCCN2CCOCC2)ccc1OCc1c(Cl)cccc1Cl | inconclusive: 0.562 µM [inhibitor, full curve, poor fit] | –
CC(C)c1ccc2oc(-c3cccc(NC(=O)c4ccc5c(c4)OCCO5)c3)nc2c1 | inactive | –
Cc1ccc(S(=O)(=O)/N=C(/NC(=S)Nc2c(C)n(C)n(-c3ccccc3)c2=O)c2ccccc2)cc1 | inconclusive: 39.8 µM [inhibitor, single point] | –
CCC(Br)C(=O)Nc1ccc(OC)cc1 (stereo not given) | inconclusive: 50.1 µM [inhibitor, partial curve, poor fit] | –
COc1ccc(O)c(/C=N/NS(=O)(=O)c2ccc(C)cc2)c1 | inactive | –
CCN1CCN(c2sc(S(C)(=O)=O)nc2S(=O)(=O)c2ccc(Cl)cc2)CC1 | inconclusive: 79.4 µM [inhibitor, single point] | –
CSc1ccc(CCNC(=O)CCc2c(C)nc3cc(-c4ccccc4)nn3c2C)cc1 | inactive | –
CCOc1ccc(/C=C/c2nc(C#N)c(Nc3ccc(OC)cc3)o2)cc1 | inactive | –
COc1ccc(S(=O)(=O)N2CCN(C)CC2c2ccccc2)cc1OC (stereo not given) | inconclusive: 79.4 µM [inhibitor, single point] | –
OCCCNc1ncnc2c1cnn2-c1ccc(Cl)cc1 | inactive | –
CCCOc1ccc(CN(C(=O)c2nc(SC(C)C)ncc2Cl)C2CCS(=O)(=O)C2)cc1 (stereo not given) | inactive | –
COc1ccc(OCc2cccc(C(=O)Nc3ccc(CN4CCCCC4)cc3)c2)cc1 | inconclusive: 44.7 µM [inhibitor, partial curve, poor fit] | –
